Nine compounds from the supplement of paper PMC6828730 can be followed below.

The subject of assay [1] is hiPSC-derived cardiomyocytes. In words: time to death of most cells in well after compound addition (days); higher = less cardiotoxic. Particulars: screen: 1; 10 µM.
The test system of assay [2] is hiPSC-derived cardiomyocytes. In words: time to death of most cells in well after compound addition (days); higher = less cardiotoxic; extreme values may be limits of the assay. Particulars: 10 µM.

Molecules are shown by their SMILES. The list shows a part of the results. Single values are uncertain, as repeats are few or missing.

On to `NC(=O)Nc1cc(-c2cccc(F)c2)sc1C(=O)N[C@H]1CCCNC1`, for which the “time to death of most cells in well” value is 3 in assay [1], 1.5 in assay [2] (screen: 2), 5 in assay [2] (screen: 3) and 6 in assay [2] (screen: 4).

With `Cc1ccc(C(=O)Nc2ccc(CN3CCN(C)CC3)c(C(F)(F)F)c2)cc1C#Cc1cnc2[nH]ncc2c1` [GZD824 Dimesylate], the “time to death of most cells in well” value in assay [1] amounted to 0; in assay [2] (screen: 2), 1; in assay [2] (screen: 3), 3.5; in assay [2] (screen: 4) it was 1.

Regarding `CN1CCC(COc2cnc(-c3cccc(Cn4nc(-c5cccc(C#N)c5)ccc4=O)c3)nc2)CC1`, the “time to death of most cells in well” value in assay [1] was 2.5; in assay [2] (screen: 2), 5.5; in assay [2] (screen: 3), > 7; in assay [2] (screen: 4), > 7.

With `COc1ccccc1-c1cc(Nc2cccc(CS(N)(=O)=O)c2)ncn1`, the “time to death of most cells in well” value was 0 in assay [1], > 7 in assay [2] (screen: 2), > 7 in assay [2] (screen: 3) and > 7 in assay [2] (screen: 4).

`CC[C@@H]1C(=O)N(C)c2cnc(Nc3ccc(C(=O)N[C@H]4CC[C@H](N5CCN(CC6CC6)CC5)CC4)cc3OC)nc2N1C(C)C` [Volasertib (BI 6727)]: the “time to death of most cells in well” value in assay [1] was 2.5; in assay [2] (screen: 2), 3.5; in assay [2] (screen: 3) it was 2; in assay [2] (screen: 4), 2.5.

Take `CN1CCN(c2ccc(C(=O)Nc3n[nH]c4ccc(Cc5cc(F)cc(F)c5)cc34)c(NC3CCOCC3)c2)CC1` [Entrectinib (RXDX-101)]: the “time to death of most cells in well” value worked out at 1 in assay [1], 2.5 in assay [2] (screen: 2), 3.5 in assay [2] (screen: 3) and 1.5 in assay [2] (screen: 4).

For the compound `Cc1cc(Nc2nc(N[C@@H](C)c3ccc(F)cc3)c(C#N)cc2F)n[nH]1`, the “time to death of most cells in well” value in assay [1] is > 7; in assay [2] (screen: 2), 6.5; in assay [2] (screen: 3), > 7; in assay [2] (screen: 4), > 7.

As for `Cc1cc(Nc2ncc(Cl)c(Nc3ccccc3S(=O)(=O)C(C)C)n2)c(OC(C)C)cc1C1CCNCC1` [Ceritinib (LDK378)], the “time to death of most cells in well” value was 1 in assay [1], 0.5 in assay [2] (screen: 2), 0.5 in assay [2] (screen: 3) and 2.5 in assay [2] (screen: 4).

Regarding `CC(C)(O)CNc1ncc(-c2ccnc(Nc3ccnc(Cl)c3)n2)c(CC2CC2)n1`, the “time to death of most cells in well” value in assay [1] is 2.5; in assay [2] (screen: 2), 2; in assay [2] (screen: 3), 2.5; in assay [2] (screen: 4) it was 6.5.
